In patent US20080242688A1, “Method 741” (ASTRAZENECA AB, priority 2007, published 2008):

How the values were obtained:
α7 receptor [1] = molecular target: α7 receptor (Rattus norvegicus, UniProt Q05941); assay: Hippocampal slice fEPSP, PPF; type: cell-based; settings: 5 μM
rhesus monkeys = assay: Intravenous self-administration (reinforcing potential); settings: initial dose-finding study, one monkey, 34.8 mg/kg iv bolus
[2] = molecular target: T1, human recombinant α7 receptor (Homo sapiens, UniProt P36544); assay: Whole cell current, Xenopus oocytes; type: cell-based; parameters: expressed in transfected cells; host or cells: Xenopus oocytes (mRNA injected); settings: oocyte
α7 receptor [3] = assay: Hippocampal slice fEPSP, PPF; type: cell-based; settings: marmoset hippocampal slice, 5 μM
Modified Irwin screen = type: in vivo; settings: in vivo; rat, oral; read-out: NOAEL, Irwin screen / CNS function
rats = assay: Modified Irwin screen; type: in vivo; settings: rat
[4] = molecular target: rat neuronal α7 receptors (Rattus norvegicus, UniProt Q05941); assay: Whole cell current, acutely dissociated rat hippocampal interneurons; type: cell-based; settings: rat hippocampal neuron
α7 receptors = assay: In vitro activation of α7 receptors (recombinant and native preparations); type: cell-based, human, or mouse; settings: recombinant receptors in oocytes or HEK cells, native rat neurons, brain slices
Protein binding = type: in vitro ADME; settings: across species including human; 21.6 to 21.630 ng/mL (0.1 to 100 μM)
[5] = Mass balance of [14C]-AZD0328 in rats; settings: rat, in vivo, 2.16 mg/kg; fed rats, single and multiple oral doses (solution)
Method: In the mass balance study conducted in fed rats, a Tmax of 0.5 h to 1 h was observed following single and multiple oral doses (solution). The bioavailability of AZD0328 (total radioactivity) in this study was >90%. […] Generally speaking, the elimination was complete within the 24-hour interval at the dose levels tested.
Pharmacokinetics and mass balance of [^14C]-AZD0328 were investigated in rats. The excretion of [^14C]-AZD0328-derived radioactivity in rats was mainly through the kidney. Over the course of the study, radioactivity recovered in urine and feces accounted for approximately 85% and 8%, respectively.

[6] = molecular target: T1, human recombinant α7 receptor; assay: [125I]-α-bungarotoxin (BTX) binding, α7-HEK membranes; parameters: expressed in transfected cells; host or cells: Xenopus oocytes (mRNA injected)
[7] = 1 month repeated-dose oral toxicity in the rat; settings: both sexes, in vivo, 1-month rat toxicity study, read-out: NOAEL for renal tubule vacuolation
marmoset monkeys = assay: Behavioral effects / tolerability in marmosets; type: in vivo; settings: im

## c1cnc2c(c1)C[C@@]1(CN3CCC1CC3)O2 [AZD0328, (R)-Spiro[1-azabicyclo[2.2.2]octane-3,2′(3′H)-furo[2,3-b]pyridine]]
α7 receptor [1]
  fEPSP PPF: 121 % control P2:P1
Rhesus monkeys
  mortality: died within minutes.
[2]; human recombinant α7
  EC50: 1900 nM
[2]; human recombinant α7, 10 μM, % of maximum acetylcholine response
  Emax: 70%
α7 receptor [3]
  fEPSP PPF: 123 % control P2:P1
Modified Irwin screen
  NOAEL: 64.9 mg/kg
rats; in vivo, po
  dose with sedation, reduced traction response, lacrimation and salivation: salivation at 194.7 mg/kg. At
rats; oral gavage, 259.5 mg/kg
  mortality: 259.5 mg/kg 1 of 6 animals died.
rats; oral gavage, up to 4 h postdose
  dose after which sedation was observed: 129.8 mg/kg up to 4 h postdose.
[4]
  EC50: 400 nM
[4]; read-out: Maximum Response, whole cell current
  Emax: 97%
α7 receptors
  concentration necessary to evoke any detectable activation of α7 receptors: greater than 100 nM
Protein binding
  fraction unbound: > 0.85
[5]
  Tmax: 30 to 60 min
[6]
  Ki: 3 nM
[7]
  NOAEL at 1 month: 2.2 mg/kg
Marmoset monkeys; marmoset
  dose after which one animal defecated: One animal defecated after 0.01 mg/kg
Marmoset monkeys; marmosets
  doses after which salivation, vomiting, scratching, defecation and increased activity were observed: administration with 0.03-3 mg/kg
